Results on 153 variants are retold here after a collection of fitness landscapes (doi:10.1126/science.1257360).

The list shows a part of the results.

First the molecules themselves.
B1: PhoQ; a variant is named by its letters at X, in order, P23837 (parent)
chain: MKKLLRLFFPLSLRVRFLLATAAVVLVLSLAYGMVALIGYSVSFDKTTFRLLRGESNLFYTLAKWENNKLHVELPENIDKQSPTMTLIYDENGQLLWAQRDVPWLMKMIQPDWLKSNGFHEIEADVNDTSLLLSGDHSIQQQLQEVREDDDDAEMTHSVAVNVYPATSRMPKLTIVVVDTIPVELKSSYMVWSWFIYVLSANLLLVIPLLWVAAWWSLRPIEALAKEVRELEEHNRELLNPATTRELTSLVRNLNRLLKSERERYDKYRTTLTDLTHSLKTPLXXLQXXLRSLRSEKMSVSDAEPVMLEQISRISQQIGYYLHRASMRGGTLLSRELHPVAPLLDNLTSALNKVYQRKGVNISLDISPEISFVGEQNDFVEVMGNVLDNACKYCLEFVEISARQTDEHLYIVVEDDGPGIPLSKREVIFDRGQRVDTLRPGQGVGLAVAREITEQYEGKIVAGESMLGGARMEVIFGRQHSAPKDE

In this experiment the parent is B1. Description: enrichment ratio after two sorts for PhoP signalling (ratio (wild type AVST 3.29)); higher = more functional. The following applies: with PhoP (E. coli).
In the case of YECI, the enrichment ratio was determined as 0.32.
The same measure for WRAA: at most 0.25; for MMSK: at most 0.25.
As for AVPY, the enrichment ratio is at most 0.25.
The same measure for DVIL: at most 0.25; for KTGI: at most 0.25; for QTNP: at most 0.25.
Take GATF: the enrichment ratio was at most 0.25.
The value for IESF was at most 0.25.
The same measure for LCWM: at most 0.25; for APNS: at most 0.25.
As to VTTS, the enrichment ratio was at most 0.25.
Regarding IIQW, the enrichment ratio was at most 0.25.
The same measure for QDTT: at most 0.25; for VHYM: at most 0.25.
The value for KHAF was at most 0.25; that for SFMQ was 1.15; that for ILKY was at most 0.25.
The value for SSWA was at most 0.25; that for TCEG was at most 0.25.
As for EQGI, the enrichment ratio is at most 0.25.
The value for MCQL was at most 0.25.
With VMQI, the enrichment ratio was at most 0.25.
The same measure for NGLA: at most 0.25.
The value for NRVC was at most 0.25; that for EDDF was at most 0.25.
The value for YSKS was at most 0.25.
Turning to DWGT, the enrichment ratio was at most 0.25.
The value for HQCS was at most 0.25; that for RAMP was at most 0.25; that for YSRA was at most 0.25.
The same measure for VAMQ: at most 0.25; for IYDA: at most 0.25.
With GTPL, the enrichment ratio is at most 0.25.
The value for KNYT was at most 0.25.
FGLH: the enrichment ratio worked out at 6.84.
The same measure for LQCK: at most 0.25; for LTKQ: at most 0.25.
The value for EARC was at most 0.25; that for LQIS was at most 0.25; that for GNIE was at most 0.25.
Regarding HCKL, the enrichment ratio was found to be 2.13.
Consider NWWT, for which the enrichment ratio was at most 0.25.
The value for DTCI was at most 0.25; that for TDDK was at most 0.25.
The value for AEHY was at most 0.25; that for PWRC was at most 0.25; that for KMAI was at most 0.25.
Regarding TQFN, the enrichment ratio worked out at 14.2.
The value for YLCN was 0.42.
Consider DCFD, for which the enrichment ratio is at most 0.25.
The same measure for KVTI: at most 0.25.
The same measure for HVLR: at most 0.25; for RHAR: at most 0.25.
The value for DCYN was at most 0.25.
Consider LFKN, for which the enrichment ratio was at most 0.25.
The same measure for LLLS: at most 0.25; for YPAT: at most 0.25; for RDCD: at most 0.25.
Consider RNLA, for which the enrichment ratio was at most 0.25.
The same measure for PWWL: at most 0.25.
The same measure for MHVC: at most 0.25.
Turning to ARHC, the enrichment ratio is at most 0.25.
For HRIF, the enrichment ratio was at most 0.25.
Turning to HGGY, the enrichment ratio is at most 0.25.
The same measure for KTRW: at most 0.25; for TRLI: 7.56; for FSDA: at most 0.25.
The same measure for RFNQ: at most 0.25.
The value for LWQS was at most 0.25.
Take RTDK: the enrichment ratio was at most 0.25.
The same measure for SEEM: 10.9; for ECFV: at most 0.25.
Regarding FMMD, the enrichment ratio was at most 0.25.
TGML: the enrichment ratio was found to be 12.2.
The same measure for IWPM: at most 0.25; for KPYR: 0.737; for RTHL: at most 0.25.
The value for APWS was at most 0.25.
The same measure for RSSW: at most 0.25.
On to GMLA, for which the enrichment ratio is at most 0.25.
The value for YIHP was at most 0.25.
The same measure for NELV: 2.93; for PTEQ: at most 0.25; for VIQI: at most 0.25.
The same measure for ESPR: at most 0.25; for CFVL: at most 0.25.
For the variant PPLV, the enrichment ratio was at most 0.25.
Turning to KLAI, the enrichment ratio is at most 0.25.
The value for FWGA was at most 0.25; that for PPMP was at most 0.25; that for MMVA was at most 0.25.
The same measure for YMEK: at most 0.25; for MDFA: at most 0.25; for FNQQ: at most 0.25.
The same measure for MSHE: at most 0.25.
As to GGGA, the enrichment ratio was at most 0.25.
The same measure for LIGI: at most 0.25; for RAMW: at most 0.25.
The value for QSCH was at most 0.25.
The same measure for YRHA: at most 0.25; for SDKW: at most 0.25.
For the variant QCIK, the enrichment ratio was at most 0.25.
The value for WMWK was at most 0.25; that for WNDI was at most 0.25; that for WKHA was at most 0.25.
For VVPF, the enrichment ratio is at most 0.25.
The same measure for VYIF: at most 0.25.
The value for YKRN was at most 0.25.
The value for LHVN was at most 0.25.
Take IPKQ: the enrichment ratio was at most 0.25.
As to TEYW, the enrichment ratio was at most 0.25.
Turning to QQTW, the enrichment ratio was at most 0.25.
The value for EENY was at most 0.25; that for NLVS was at most 0.25.
With ADSL, the enrichment ratio was at most 0.25.
The value for LSVA was at most 0.25; that for THTM was 8.22.
For the variant QLAA, the enrichment ratio was at most 0.25.
The same measure for FTSI: at most 0.25.
The value for TMAE was 6.39; that for HMLG was at most 0.25.
The same measure for NHYI: at most 0.25; for IPQN: at most 0.25.
Regarding NYLD, the enrichment ratio was at most 0.25.
The same measure for ILNP: at most 0.25.
The value for WYYN was at most 0.25; that for HRIG was at most 0.25; that for AADF was at most 0.25.
The value for KSLV was at most 0.25; that for YIMF was at most 0.25.
With YDYQ, the enrichment ratio is at most 0.25.
In the case of YDTN, the enrichment ratio was at most 0.25.
As for HATK, the enrichment ratio was at most 0.25.
The same measure for MSEM: at most 0.25.
The value for NHCA was at most 0.25; that for HQCK was at most 0.25.
The same measure for DWGD: at most 0.25; for THDR: at most 0.25; for FDHF: at most 0.25.
Take SGWW: the enrichment ratio is at most 0.25.
The value for ALLE was 8.01.
The value for TMQS was 14.3; that for NIWL was at most 0.25.
The same measure for MQGD: at most 0.25.
Consider QDFQ, for which the enrichment ratio was at most 0.25.
The same measure for HSYY: at most 0.25; for GPGF: at most 0.25; for WGGG: at most 0.25.
Consider RQTE, for which the enrichment ratio is at most 0.25.
The value for PAIE was at most 0.25.
The same measure for LYFN: at most 0.25; for IQTG: at most 0.25.
